Article PMC4242493
This is one part of the list. The list includes weakly bound sequences.

Molecular target: MaxL homodimer (UniProt P61244)
Assay: universal protein-binding microarray (PBM)
Conditions: PBS-based mixture, 10 nM His-tagged protein dimer, 2% milk, 200 ng/uL BSA, 50 ng/uL salmon testes DNA, 0.02% TX-100; detection with Alexa 488 anti-His …; high values mean tight binding; most listed sequences are background and not binding sites; double strand, one strand shown

UniProt P61244, sequence (P61244 whole entry): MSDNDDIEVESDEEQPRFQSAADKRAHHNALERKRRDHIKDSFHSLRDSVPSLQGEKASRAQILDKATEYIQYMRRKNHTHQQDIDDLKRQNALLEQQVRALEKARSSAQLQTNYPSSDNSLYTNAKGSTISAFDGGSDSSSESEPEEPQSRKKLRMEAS

Sequence	binding signal (normalized occupancy)
ATCTAGTA	0.0744
CCCGTGAA	0.0812
AAGGATAA	0.0776
AAAACAAC	0.0703
AATAGTTA	0.078
AATATGGA	0.0859
ATGTTCAG	0.0809
AACGCTGA	0.0816
TTGTTAAA	0.0761
ACCGTAAC	0.0752
ACGGATGA	0.0808
CGCCAACG	0.075
TCGATGAA	0.075
CGTTCAGC	0.0709
CTCGACCC	0.0759
AGATCCTC	0.0822
TATAGTGA	0.0805
AACTCGCC	0.0734
ATCTACGA	0.0789
CGTTATTC	0.0797
CCAATACG	0.0775
CGATGCCG	0.0689
CCACGTAG	0.0817
ACCTTCCG	0.0787

Sequence	binding signal (normalized occupancy)
ATCAAGTC	0.0758
CTAGTCAC	0.0824
AAATTGGC	0.0752
CATCTGTA	0.087
CGGGGACC	0.0726
CTGGGGCC	0.0705
AAGCAAAA	0.075
GGAACACA	0.0785
CACCTACG	0.0728
CACATGAG	0.109
CATTATTA	0.0832
ACCGCGTA	0.0727
GAAAGGTC	0.0773
CAAACTAG	0.0717
CAGGTTTC	0.0771
AGTACTTA	0.0757
AGCCTCCG	0.0658
AGCGAACA	0.0697
GTCTGAGA	0.0701
CGAAAGGC	0.0716
CACCGCTA	0.0676
AATCTCTA	0.0765
CCCTATAC	0.0796
GACAAATA	0.0759

Sequence	binding signal (normalized occupancy)
CTATCTGC	0.0756
AAGGATAT	0.0819
ACTTTGCC	0.0691
ACGCTATA	0.085
GGTCTTGA	0.0779
GATACAAA	0.0725
ATTCGTGC	0.0779
ATATCGCA	0.0785
CACATTCA	0.0824
ACGTTTCG	0.0744
TAACCTAA	0.0715
ATTCGCGG	0.0709
CAGCACCA	0.0778
AGGAATAT	0.0787
AAACATAG	0.0761
TTTTAAAA	0.0656
GGTAGAAA	0.0758
TACGTAGA	0.0768
GACCTCTA	0.0707
AGGAACAG	0.0793
AACGGTCC	0.068
CGACGGCA	0.072
GGGCTTCA	0.0716
AAGGTTAT	0.0732

Sequence	binding signal (normalized occupancy)
ATGAACTC	0.0855
ATGCCACA	0.0905
ATCAGGAT	0.075
CTCAGTGC	0.0665
AGTCCGTC	0.067
CTGAGCCC	0.0717
ATAAACGA	0.0801
TCCGAGGA	0.0705
CCATCTAC	0.0774
GAGCGTAA	0.0774
ACTAGGGA	0.0789
ACGTTTAG	0.0812
AACCGGCC	0.0652
AAACCCCT	0.0766
ATGAACGA	0.0808
TCCCGACA	0.0852
CTACGTCA	0.0708
CGATCCCA	0.0778
ATGCAAAG	0.0776
GTAGAAAC	0.0765
AACAGGAG	0.0788
TACCTACA	0.0795
